About 230 (0.21%) of roughly 110,000 compounds showed an effect of 50% or more. Some of the results follow.
What follows are molecules tested against DPAP1 (Plasmodium falciparum, UniProt Q8IIJ9) (assay: primary screen, percent inhibition; read by cleavage of a fluorogenic dipeptide substrate; higher = more effect of the substance).
Set-up: species or system P. falciparum D10 trophozoite lysates; single well
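Further: 30 min substrate incubation versus DMSO and 10 µM JCP410 controls.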

Chain of DPAP1 (Q8IIJ9 whole entry, looked up): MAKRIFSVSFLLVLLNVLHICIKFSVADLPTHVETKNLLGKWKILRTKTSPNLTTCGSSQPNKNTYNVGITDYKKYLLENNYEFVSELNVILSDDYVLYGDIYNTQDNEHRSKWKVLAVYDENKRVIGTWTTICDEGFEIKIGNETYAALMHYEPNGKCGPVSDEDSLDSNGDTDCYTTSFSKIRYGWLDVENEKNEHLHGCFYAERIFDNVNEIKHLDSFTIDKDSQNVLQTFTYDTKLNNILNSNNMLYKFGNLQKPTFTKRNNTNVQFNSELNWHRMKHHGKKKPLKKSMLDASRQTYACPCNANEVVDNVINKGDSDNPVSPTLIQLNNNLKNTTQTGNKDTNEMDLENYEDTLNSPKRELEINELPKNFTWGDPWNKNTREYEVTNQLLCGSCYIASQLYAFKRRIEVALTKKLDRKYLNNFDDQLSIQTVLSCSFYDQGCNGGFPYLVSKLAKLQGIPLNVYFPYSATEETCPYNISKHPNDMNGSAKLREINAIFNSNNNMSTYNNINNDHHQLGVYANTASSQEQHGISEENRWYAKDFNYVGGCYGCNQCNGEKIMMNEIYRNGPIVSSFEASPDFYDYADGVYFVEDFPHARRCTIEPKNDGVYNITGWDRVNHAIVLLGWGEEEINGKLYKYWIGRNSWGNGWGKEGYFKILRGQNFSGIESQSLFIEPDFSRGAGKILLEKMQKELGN

Row | Structure (SMILES) | % Inhibition @ 10 uM [%]
1 | Cc1ccc(C(=O)O)cc1/N=C/c1c(C)nn(-c2ccc(Cl)cc2)c1O | 4.01
2 | Cc1ccc(S(=O)(=O)NC(=O)Nc2ccc(C)cc2C)cc1 | -3.25
3 | COc1ccc(Br)cc1CNCc1ccc2c(c1)OCO2 | -4.16
4 | Cc1ccc(NC(=O)c2ccncc2)c(NC(=O)c2ccncc2)c1 | -3.47
5 | Cc1ccc(C(=O)c2cn(CC(=O)NC3CCCC3)c3nc(C)ccc3c2=O)cc1 | -2.07
6 | COc1ccc(-c2cc(C(F)(F)F)nc(SCC(=O)N3CC(C)OC(C)C3)n2)cc1OC (stereo not drawn) | 32.3
7 | CC1CC(C)C(=O)N(c2ccccc2)C1=O (stereo not drawn) | 0.389
8 | O=[N+]([O-])c1ccc(SCCc2ccccn2)cc1 | 0.989
9 | COc1ccc(/C(O)=C/C2=NCC3c4ccccc4CCN3C2=O)cc1 (stereo not drawn) | -0.68
10 | CCN1CCCC1CNC(=O)Cn1nc(C)n2c(cc3c(OC)cccc32)c1=O (stereo not drawn) | -5.32
11 | CC1CC(C)CN(C(=O)C2CCC(CNS(=O)(=O)c3ccc(Cl)cc3)CC2)C1 (stereo not drawn) | 2.35
12 | O=C(c1cc(-c2ccco2)on1)N1CCc2ccccc2C1 | -1.21
13 | CCCN1C(=O)S/C(=C\c2c(NCC)nc3ccccn3c2=O)C1=O | -2.98
14 | CCOc1ccc2nc(N3CCC(C(=O)NCC4CCCO4)CC3)sc2c1 (stereo not drawn) | 3.4
15 | COc1ccc(S(=O)(=O)N2CCN(c3ccc(C)cc3C)CC2)cc1 | -4.33
16 | c1ccc(CC2CCN(Cc3nnc(-c4ccc5c(c4)OCO5)o3)CC2)cc1 | -0.0709
17 | COc1ccc(CCN2/C(=N/C(C)=O)SC3CS(=O)(=O)CC32)cc1 (stereo not drawn) | -1.15
18 | COC(=O)c1c(C)n(Cc2ccccc2)c2ccc(O)cc12 | 2.95
19 | N#Cc1ccccc1NC(=O)c1ccc(N2C(=O)c3ccccc3C2=O)cc1 | -1.93
20 | C=CCn1c(-c2ccccc2)cs/c1=N\c1ccc(OC)cc1 | 8.06
21 | CCCCN(CC)CCCNC(=O)NCc1noc2ccc(C)cc12 | 4.25
22 | Cc1ccccc1C(=O)Nc1ccc(S(=O)(=O)N2CCCCC2)cc1 | 3.8
23 | COc1ccc2c(CNCc3cccc(Cl)c3)c(C(=O)O)n(Cc3ccccc3C)c2c1 | 2
24 | CCN1C(=O)/C(=C\c2ccc3c(c2)OCO3)C(C(=O)OC)=C1C | -1.32

Row | Structure (SMILES) | % Inhibition @ 10 uM [%]
25 | C/C=C(\C)CN1CCN(c2cccc(Cl)c2)CC1 | 1.88
26 | Fc1nc(F)c(F)c(-n2c(C(F)(F)F)nc3ccccc32)c1F | 4.66
27 | COc1ccc(OC)c(N(CC(=O)Nc2ccccc2F)S(=O)(=O)c2ccccc2)c1 | 5.04
28 | Cc1ccc(S(=O)(=O)NCC2CCC(C(=O)NC(C)c3ccc4c(c3)OCCO4)CC2)cc1 (stereo not drawn) | 3.93
29 | C=CCc1c(C)nc(-c2ccccc2)nc1Nc1ccc([N+](=O)[O-])cc1 | -0.712
30 | Cc1ccc(-c2noc(-c3nnn(-c4ccccc4Cl)c3N)n2)cc1 | -3.58
31 | COC(=O)c1nc2n(n1)C(c1cc(OC)ccc1OC)C=C(c1cccc(Br)c1)N2 (stereo not drawn) | 1.73
32 | CCOC(=O)NCCc1cc(OC)c(OC)cc1C(C)=O | 4.11
33 | COc1cccc(NC(=O)Nc2ccc(Cl)c(Cl)c2)c1 | 0.316
34 | O=C(CN1C(=O)S/C(=C/c2cccc(F)c2)C1=O)Nc1ccccc1 | -9.11
35 | CCc1nn(C(C)C(=O)NC(C)CCc2ccccc2)c(=O)c2cc3occc3n12 (stereo not drawn) | -3.79
36 | CCOC(=O)c1sc(NC(=O)C(C)Oc2ccccc2Br)c(C(=O)OCC)c1C (stereo not drawn) | 0.611
37 | Oc1ccc2[nH]cc(CCNC(c3ccccc3)(c3ccccc3)c3ccccc3)c2c1 | 6.24
38 | CS(=O)(=O)C1=NN2C(=N)/C(=C\c3ccc(SCc4ccccc4)o3)C(=O)N=C2S1 | 6.04
39 | O=C(CN(c1cccc(Br)c1)S(=O)(=O)c1ccccc1)N1CCCCCC1 | 0.956
40 | COCCN1C(=O)c2ccccc2C(C(=O)N2CCCC2)C1c1ccc(F)cc1 (stereo not drawn) | 0.457
41 | CCO/C(O)=C1\C(C)=NC2=C(C(=O)CCC2)C1c1ccc(Cl)c(Cl)c1 (stereo not drawn) | -1.56
42 | COc1cc(Br)cc2cc(C(=O)NCc3ccncc3)c(=O)oc12 | -0.0108
43 | O=C(CSc1ccccn1)Nc1nc(-c2ccccc2)cs1 | 2.24
44 | C=CCSc1ncc(Cl)c(C(=O)Nc2nc3ccc(F)cc3s2)n1 | -0.946
45 | COc1ccc2c(CNC3CCCC3)c(C(=O)O)n(Cc3ccc(F)cc3Cl)c2c1 | 2.54
46 | N#Cc1c(Cl)nc(N2CCN(C(=O)c3ccccc3)CC2)c(Cl)c1Cl | 1.34
47 | N#Cc1c(-c2ccc(Cl)cc2)cc(C2CC2)nc1SCC(N)=O | 7.15
48 | O=C(Nc1ccc(C(=O)N2CCOCC2)cc1)c1cccc(Cl)c1 | 1.52

Source: PMC6919601, “Identification of Plasmodium dipeptidyl aminopeptidase allosteric inhibitors by high throughput screening” (PLoS ONE, 2019)
